Laboratory results published in the supplement of paper PMC4967469.
The IC50 comes from the fitted curve, where viability falls to half of the control; a limit (>, <) means that the fit lies beyond the doses tested. For AUC the same curve is integrated over the 256-fold range of doses and scaled to a fraction; it is 1 without any effect and falls as sensitivity rises. For some of these results: Any top dose called inferred was derived from the fitted curves, not read from the paper.

Legend:
Assay in all cases: Viability of human cancer cell lines after 72 h of drug (GDSC screen)
[1] = compound: CN1CCc2c(c3ccccc3n2Cc2ccc(C(=O)NO)cc2)C1 [Tubastatin A]; settings: top dose 20 µM
Procedure: (§1)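 Human cancer cell lines in 384-well plates, medium with 10% serum, drug for 72 h over a 256-fold dose range (nine 2-fold or five 4-fold steps up to the top dose). Adherent lines were fixed and stained with the nucleic acid dye Syto60, suspension lines read with resazurin; signal relative to control wells, capped at 0 and 100%. One two-parameter sigmoid per drug and line, fitted in a mixed model over all curves with the slope shared within a line.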

[2] = compound: O=C(NOCC1CC1)c1ccc(F)c(F)c1Nc1ccc(I)cc1Cl [CI-1040]; settings: top dose 10 µM; top dose inferred
Procedure: as §1

[3] = compound: CN(C)C/C=C/C(=O)Nc1ccc(C(=O)Nc2cccc(Nc3nccc(-c4cccnc4)n3)c2)cc1 [ZG-10]; settings: top dose 10 µM; top dose inferred
Procedure: as §1

[4] = compound: Cn1nnc2c(C(N)=O)ncn2c1=O [Temozolomide]; settings: top dose 30 µM
Procedure: as §1

[5] = compound: COc1cc2c(Oc3ccc(NC(=O)C4(C(=O)Nc5ccc(F)cc5)CC4)cc3F)ccnc2cc1OCCCN1CCOCC1 [XL-880]; settings: top dose 5.12 µM; top dose inferred
Procedure: as §1

[6] = compound: Oc1ccc2ccccc2c1SSc1c(O)ccc2ccccc12 [IPA-3]; settings: top dose 32 µM; top dose inferred
Procedure: as §1

Cell Line	AUC [1]	IC50 [1]	AUC [2]	IC50 [2]	AUC [3]	IC50 [3]	AUC [4]	IC50 [4]	AUC [5]	IC50 [5]	AUC [6]	IC50 [6]
JHOS-2 (ovary, adherent)	0.942	> 20 µM	0.682	2.2 µM	0.694	2.42 µM	0.966	> 30 µM	0.66	0.962 µM		
C-4-I (cervix, adherent)	0.986	> 20 µM	0.812	5.91 µM	0.926	> 10 µM			0.748	1.78 µM	0.959	> 32 µM
PEO1 (ovary, adherent)	0.978	> 20 µM	0.91	> 10 µM	0.613	1.29 µM	0.985	> 30 µM	0.636	0.771 µM		
D-566MG (glioma, adherent)	0.983	> 20 µM	0.754	3.32 µM	0.692	2.14 µM	0.96	> 30 µM	0.562	0.473 µM		
OVCA433 (ovary, adherent)	0.985	> 20 µM	0.795	5.22 µM	0.699	2.43 µM	0.975	> 30 µM	0.668	0.996 µM		
RCC-MF (kidney, adherent)	0.823	16.7 µM	0.778	5.33 µM	0.818	7.9 µM	0.956	> 30 µM	0.633	0.834 µM		
IGR-1 (melanoma, adherent)	0.887	17.6 µM	0.932	> 10 µM	0.705	2.17 µM			0.594	0.559 µM	0.836	17.7 µM
SK-MG-1 (glioma, adherent)	0.986	> 20 µM	0.92	> 10 µM	0.576	1.01 µM	0.981	> 30 µM	0.704	1.21 µM		
FLO-1 (oesophagus, adherent)	0.957	> 20 µM	0.899	> 10 µM	0.551	0.916 µM	0.972	> 30 µM	0.563	0.514 µM		
SK-MEL-5 (melanoma, adherent)	0.977	> 20 µM	0.557	0.924 µM	0.835	8.78 µM	0.975	> 30 µM	0.867	> 5.12 µM		
Hey (ovary, adherent)	0.924	> 20 µM	0.716	2.45 µM	0.681	1.94 µM	0.97	> 30 µM	0.646	0.793 µM		
NCC021 (kidney, adherent)	0.962	> 20 µM	0.927	> 10 µM	0.916	> 10 µM	0.983	> 30 µM	0.57	0.513 µM		
RCC-AB (kidney, adherent)	0.901	> 20 µM	0.978	> 10 µM	0.801	6.74 µM	0.977	> 30 µM	0.54	0.426 µM		
